Data from PubChem BioAssay AID463173 (ICCB-Longwood Screening Facility, Harvard Medical School, 2010).
Out of some 52,000 compounds screened, about 1,700 (3.3%) were called active. No stated cut-off is given here; in the data, active means survival mostly below about 52% (no sharp cut-off); inactive means mostly above about 56%. Some of the results follow.

The compounds below were run on Wild type (assay: growth inhibition of S. aureus wild type versus tarO mutant, primary screen, teichoic acid synthesis inhibitors, RN4220, OD600 (AID 463173)). Details: S. aureus RN4220 wild type/DeltatarO growth, OD600, 18 h, active compounds read low, screened at 18.75 µg/mL (by protocol).

| Compound | survival |
| --- | --- |
| COc1ccc(-c2nc3ccccc3n2Cc2ccccc2)cc1 | active: 0% |
| Cc1c(Cl)ccc2sc(N3CCN(C(=O)CCS(=O)(=O)c4ccc(F)cc4)CC3)nc12 | active: -3% |
| Cc1ccc(-n2nc(C)c3c(C(=O)Nc4ccccc4C(F)(F)F)cc(C)nc32)cc1 | inactive: 69% |
| Cc1ccc2c(c1)C(c1ccccc1)N(C(=O)COc1ccc(Cl)cc1Cl)CC(=O)N2 (configuration not stated) | inactive: 69% |
| CC1=C(C(=O)Nc2ccccc2)C(c2ccccn2)n2nc(SCc3ccccc3)nc2N1 (configuration not stated) | inactive: 85% |
| CCCCN1C(=O)C(O)(CC(=O)c2ccc(CC)cc2)c2cc(Br)ccc21 (configuration not stated) | active: 2% |
| CCCN(C(=O)c1cc2c(=O)oc3ccc(C)cc3c2s1)c1ccc(OCC)cc1 | inactive: 62% |
| O=c1oc2cc(Br)ccc2n1CO | inactive: 102% |
| Cc1ccc(-c2noc(C3CCCN(C(=O)c4ccccc4)C3)n2)o1 (configuration not stated) | inactive: 131% |
| COc1cccc(CNC(=O)Cn2nc(C)n3c(cc4cc(C)ccc43)c2=O)c1OC | inactive: 133% |
| CCSc1nc(-c2cccc(Cl)c2)nc2c1Cc1c(CO)cnc(C)c1O2 | inactive: 114% |
| Cc1c[n+](CC(=O)c2ccccc2)c(C)cn1 | inactive: 124% |
| Cc1cc(C)c(NC(=O)CSc2nc(=O)n(Cc3ccncc3)c3c2CCC3)c(C)c1 | inactive: 85% |
| CCc1nn(CC(=O)N2CCN(c3cccc(C)c3)C(C)C2)c(=O)c2cc3sccc3n12 (configuration not stated) | inactive: 134% |
| CCN1CCN(C(=S)Nc2ccccc2)CC1 | inactive: 112% |
| CCOCCCNC(=O)C(c1ccc(C)cc1)N(Cc1ccc2c(c1)OCO2)C(=O)c1ccccc1O (configuration not stated) | inactive: 73% |
| Cc1ccc(NC(=O)n2ncc3c(C)cccc32)c(C)c1 | inactive: 85% |
| O=C(CSc1nnc2scc(-c3ccc(Cl)cc3)n12)Nc1ccc(F)cc1 | inactive: 71% |
| COc1ccccc1C(=O)NC1(C(F)(F)F)NC(=O)N(CCc2ccccc2)C1=O (configuration not stated) | inactive: 60% |

| Compound | survival |
| --- | --- |
| Cc1ccc(Nc2c(-c3cccnc3)nc3ccc(C)cn23)cc1 | inactive: 69% |
| COc1cccc(C2=CC(c3ccccc3F)n3ncc(C(=O)Nc4ccc(F)cc4)c3N2)c1 (configuration not stated) | inactive: 68% |
| Cc1ccc(N(C)C(=O)Cn2ncc3c([nH]c4ccccc43)c2=O)cc1C | inactive: 32% |
| CCc1ccc(CNC(=O)c2ccc3c(c2)c(C)c(C)n3Cc2ccccc2)cc1 | inactive: 73% |
| O=C(NC1CCCCC1)c1ccc(CSc2nc3ccncc3n2Cc2cccc(F)c2)cc1 | inactive: 136% |
| O=C(CSc1nc2c([nH]c3ccccc32)c(=O)n1-c1ccccc1)Nc1cccc(C(F)(F)F)c1 | active: -6% |
| O=C(CC1SCC(C(=O)O)NC1=O)NCc1ccccc1 (configuration not stated) | inactive: 105% |
| CCOC(=O)N1CCc2c(sc(NCc3cc(OC)ccc3OC)c2C(=O)Nc2cc(OC)ccc2OC)C1 | inactive: 138% |
| CS(=O)(=O)N1CCN(C(=O)c2ccccc2)CC1 | inactive: 110% |
| O=C(/C=C/c1ccco1)Nc1ccc(-c2nc3ccccc3[nH]2)cc1 | inactive: 114% |
| COc1ccc(CNCC#N)cc1OC | inactive: 109% |
| COC(=O)c1cc(-c2ccc(Cl)cc2)c2c(=O)[nH]c(=O)n(C)c2n1 | inactive: 102% |
| CCOCCCNC(=O)C1CCN(c2nc3ccc(C)cc3[nH]2)CC1 | inactive: 75% |
| Cc1nn(C2CC(=O)N(c3ccc(Cl)cc3)C2=O)c(C)c1C (configuration not stated) | inactive: 98% |
| COc1ccc(N2CCN(C(=O)Cn3cnc4sc(C)c(S(=O)(=O)N5CCCCC5)c4c3=O)CC2)cc1 | inactive: 90% |
| Cc1ccc(Cn2c(=O)n(CCc3ccccc3)c(=O)c3sc4ccccc4c32)cc1 | inactive: 80% |
| Cc1ccc(NC(=O)CCn2cccn2)c(C)c1 | inactive: 71% |
| COc1ccc(NC(=O)CCc2c(C)nn(-c3ccc(N4CCCC4)nn3)c2C)cc1Cl | inactive: 75% |
| COc1cccc(C(C(=O)NCC2CCCO2)N(CC2CCCO2)C(=O)CC2C(=O)c3ccccc3S2(=O)=O)c1 (configuration not stated) | inactive: 107% |

| Compound | survival |
| --- | --- |
| Cc1ccc(-c2nnc(SC(C)C)n2-c2ccccc2)cc1 | inactive: 114% |
| O=C(CSc1cn(CCNC(=O)c2ccccc2F)c2ccccc12)Nc1ccc2c(c1)OCCO2 | inactive: 78% |
| O=c1[nH]c2cc3c(cc2cc1CNCc1ccc2c(c1)OCO2)OCCO3 | inactive: 104% |
| COCCn1c(C)cc(O)c(C(c2ccccc2)N2CCN(c3ccccc3F)CC2)c1=O (configuration not stated) | inactive: 118% |
| O=C(c1ccccc1)N1CCC(c2nc3c(nnn3Cc3ccccc3)c(=O)[nH]2)CC1 | active: 0% |
| CC(Nc1ccc(-c2nc(-c3cccnc3)no2)cc1[N+](=O)[O-])c1ccccc1 (configuration not stated) | inactive: 87% |
| CCS(=O)(=O)c1ccc(C(=O)N2CCN(c3nc4c(OC)ccc(C)c4s3)CC2)cc1 | inactive: 91% |
| Cc1ccc(NC(=O)CCn2nc(C)c3c(C)n(-c4ccccc4)nc3c2=O)cc1Cl | inactive: 121% |
| O=C(Cn1ncc2ccsc2c1=O)N1CCN(c2ccc(Cl)cc2)CC1 | inactive: 72% |
| COc1ccccc1-c1nc(CNC(=O)NC2CCCCC2)c(C)o1 | inactive: 71% |
| COc1cccc(NC(=O)CSc2cc(C)c3ccccc3n2)c1 | inactive: 73% |
| COc1ccc(NC(=O)c2c(-c3ccc(C)cc3)nnc3ccccc23)cc1OC | inactive: 80% |
| O=C(c1cnccn1)N(Cc1ccc(Cl)cc1)Cc1cc2cc3c(cc2[nH]c1=O)OCCO3 | inactive: 88% |
| Cc1ccc2c(Sc3ccc(Cl)cc3)c(C(=O)N3CCCCC3)[nH]c2c1 | inactive: 112% |
| CON(C)c1nc(OCCNC(=O)OCc2ccc(Cl)cc2Cl)nc(N(C)C)n1 | inactive: 110% |
| CC1CCCCN1Cc1nc2c(c(=O)n(C)c(=O)n2C)n1Cc1ccc(Br)cc1 (configuration not stated) | inactive: 81% |
| CC(C)c1ccc(NC(=O)c2cn(C3CCCC3)c(=O)c3c2c2ccccc2n3C)cc1 | inactive: 87% |
| CCCOc1ccc(NC(=O)CC2C(=O)N(c3cccc(OC)c3)C(=O)N2CCc2ccncc2)cc1 (configuration not stated) | inactive: 73% |
| CCOc1ccc(-c2csc3ncn(CC(N)=O)c(=O)c23)cc1 | inactive: 107% |
